Measurements reported in a collection of fitness landscapes (doi:10.1126/science.1257360).
Some of the results follow.

B1: PhoQ; a variant is named by its letters at X, in order, P23837 (parent)
chain: MKKLLRLFFPLSLRVRFLLATAAVVLVLSLAYGMVALIGYSVSFDKTTFRLLRGESNLFYTLAKWENNKLHVELPENIDKQSPTMTLIYDENGQLLWAQRDVPWLMKMIQPDWLKSNGFHEIEADVNDTSLLLSGDHSIQQQLQEVREDDDDAEMTHSVAVNVYPATSRMPKLTIVVVDTIPVELKSSYMVWSWFIYVLSANLLLVIPLLWVAAWWSLRPIEALAKEVRELEEHNRELLNPATTRELTSLVRNLNRLLKSERERYDKYRTTLTDLTHSLKTPLXXLQXXLRSLRSEKMSVSDAEPVMLEQISRISQQIGYYLHRASMRGGTLLSRELHPVAPLLDNLTSALNKVYQRKGVNISLDISPEISFVGEQNDFVEVMGNVLDNACKYCLEFVEISARQTDEHLYIVVEDDGPGIPLSKREVIFDRGQRVDTLRPGQGVGLAVAREITEQYEGKIVAGESMLGGARMEVIFGRQHSAPKDE

Variants of: B1
Experiment: enrichment ratio after two sorts for PhoP signalling (ratio (wild type AVST 3.29)); higher = more functional
Conditions: with PhoP (E. coli)

| Variant | enrichment ratio |
| --- | --- |
| LYTE | ≤ 0.25 |
| PCFM | ≤ 0.25 |
| VFQT | ≤ 0.25 |
| YVVR | ≤ 0.25 |
| RVIM | ≤ 0.25 |
| EFKC | ≤ 0.25 |
| MGDD | ≤ 0.25 |
| ACCF | 1.93 |
| EDTY | ≤ 0.25 |
| HDSL | ≤ 0.25 |
| YQPE | ≤ 0.25 |
| HPNH | ≤ 0.25 |
| DGFR | ≤ 0.25 |
| DMAS | ≤ 0.25 |
| YKVQ | ≤ 0.25 |
| IWAR | ≤ 0.25 |
| EKVN | ≤ 0.25 |
| NSNS | ≤ 0.25 |
| TCAY | 14.1 |
| HWCE | ≤ 0.25 |
| GDHI | ≤ 0.25 |
| SYAE | ≤ 0.25 |
| YFSI | ≤ 0.25 |
| PHHT | ≤ 0.25 |

| Variant | enrichment ratio |
| --- | --- |
| TATM | 27 |
| KNCL | ≤ 0.25 |
| LYTW | ≤ 0.25 |
| TKAC | 7.59 |
| DQWG | ≤ 0.25 |
| PMGW | ≤ 0.25 |
| AVMD | ≤ 0.25 |
| KFIE | ≤ 0.25 |
| LNCV | ≤ 0.25 |
| QAAQ | ≤ 0.25 |
| KKVR | ≤ 0.25 |
| VIFS | ≤ 0.25 |
| RRFD | ≤ 0.25 |
| FRRD | ≤ 0.25 |
| IKWH | ≤ 0.25 |
| TEVK | 2.74 |
| PKQG | ≤ 0.25 |
| MPFT | ≤ 0.25 |
| PEHF | ≤ 0.25 |
| RKQN | ≤ 0.25 |
| MRYR | ≤ 0.25 |
| YHAV | ≤ 0.25 |
| HACF | ≤ 0.25 |
| KKTW | ≤ 0.25 |

| Variant | enrichment ratio |
| --- | --- |
| RSCF | ≤ 0.25 |
| RTTY | ≤ 0.25 |
| PCNE | ≤ 0.25 |
| KSVI | ≤ 0.25 |
| VPAG | ≤ 0.25 |
| KQFM | ≤ 0.25 |
| WWPM | ≤ 0.25 |
| GPGN | ≤ 0.25 |
| QFSE | ≤ 0.25 |
| YDTR | ≤ 0.25 |
| HDQN | ≤ 0.25 |
| RGGL | ≤ 0.25 |
| RDIE | ≤ 0.25 |
| ICHL | ≤ 0.25 |
| ARAH | ≤ 0.25 |
| NTEY | ≤ 0.25 |
| IGDY | ≤ 0.25 |
| YCDM | ≤ 0.25 |
| NMPD | ≤ 0.25 |
| LVGM | ≤ 0.25 |
| FGDL | ≤ 0.25 |
| DRCS | ≤ 0.25 |
| HYWK | ≤ 0.25 |
| YCHP | ≤ 0.25 |

| Variant | enrichment ratio |
| --- | --- |
| SLIH | ≤ 0.25 |
| SLKG | ≤ 0.25 |
| PLEA | ≤ 0.25 |
| ARMR | ≤ 0.25 |
| WRPL | ≤ 0.25 |
| LKKF | ≤ 0.25 |
| RQPP | ≤ 0.25 |
| VPSV | ≤ 0.25 |
| STEP | ≤ 0.25 |
| HEYH | ≤ 0.25 |
| QTQK | ≤ 0.25 |
| KMKY | ≤ 0.25 |
| TLIY | ≤ 0.25 |
| WNYA | ≤ 0.25 |
| ASQA | ≤ 0.25 |
| VGSC | ≤ 0.25 |
| GTLA | 6.81 |
| QKRL | ≤ 0.25 |
| EYRY | ≤ 0.25 |
| WDDE | ≤ 0.25 |
| WCWP | ≤ 0.25 |
| FISV | ≤ 0.25 |
| GYYV | ≤ 0.25 |
| IERS | ≤ 0.25 |

| Variant | enrichment ratio |
| --- | --- |
| YNYL | ≤ 0.25 |
| PIRM | ≤ 0.25 |
| MTKY | ≤ 0.25 |
| VHEC | ≤ 0.25 |
| PVEM | ≤ 0.25 |
| KGGI | ≤ 0.25 |
| GWRI | ≤ 0.25 |
| PVTL | ≤ 0.25 |
| MMGS | ≤ 0.25 |
| THNK | ≤ 0.25 |
| HEVM | 24.4 |
| INEN | ≤ 0.25 |
| IKVY | ≤ 0.25 |
| AKSL | 7.13 |
| RAGE | ≤ 0.25 |
| HVSH | ≤ 0.25 |
| WHRA | ≤ 0.25 |
| YNQG | ≤ 0.25 |
| HRPC | ≤ 0.25 |
| NGIW | ≤ 0.25 |
| QSMM | ≤ 0.25 |
| MGMG | 42.5 |
| EMIW | ≤ 0.25 |
| NTRV | ≤ 0.25 |

| Variant | enrichment ratio |
| --- | --- |
| EMFW | ≤ 0.25 |
| PVWY | ≤ 0.25 |
| AICE | 14.2 |
| WRHC | ≤ 0.25 |
| RIPW | ≤ 0.25 |
| KTPP | ≤ 0.25 |
| PKTK | ≤ 0.25 |
| FDKY | ≤ 0.25 |
| YHNR | ≤ 0.25 |
| ADNM | ≤ 0.25 |
| TGGR | ≤ 0.25 |
| FDYV | ≤ 0.25 |
| EMVG | ≤ 0.25 |
| YLHD | ≤ 0.25 |
| DKFM | 0.939 |
| YCGD | ≤ 0.25 |
| TIIR | ≤ 0.25 |
| SWEY | ≤ 0.25 |
| LWET | ≤ 0.25 |
| QSSN | 4.53 |
| DVMD | ≤ 0.25 |
| HDEN | ≤ 0.25 |
| DAGC | ≤ 0.25 |
| TEGN | 2.9 |

| Variant | enrichment ratio |
| --- | --- |
| MKTG | ≤ 0.25 |
| MDIC | ≤ 0.25 |
| GLQK | ≤ 0.25 |
| WQMK | ≤ 0.25 |
| LQQW | ≤ 0.25 |
| VSYV | ≤ 0.25 |
| WLVA | ≤ 0.25 |
| AKCC | 15.2 |
| WSLH | ≤ 0.25 |
| SGVM | 13.3 |
| EGAT | ≤ 0.25 |
| AHPG | ≤ 0.25 |
| HWAC | ≤ 0.25 |
| WEGM | ≤ 0.25 |
| DDCN | ≤ 0.25 |
| HHVP | ≤ 0.25 |
| RFWS | ≤ 0.25 |
| HTLN | ≤ 0.25 |
| YFVE | ≤ 0.25 |
| MQTT | ≤ 0.25 |
| QQCH | ≤ 0.25 |
| HSKL | ≤ 0.25 |
| ICPM | ≤ 0.25 |
| LITD | ≤ 0.25 |

| Variant | enrichment ratio |
| --- | --- |
| RGES | ≤ 0.25 |
| WDGD | ≤ 0.25 |
| HDQR | ≤ 0.25 |
| IMTT | ≤ 0.25 |
| KPMV | ≤ 0.25 |
| NEWG | ≤ 0.25 |
| HKSY | ≤ 0.25 |
| HYRF | ≤ 0.25 |
| RHAN | ≤ 0.25 |
| AFWQ | ≤ 0.25 |
| SFLE | ≤ 0.25 |
| MPMF | ≤ 0.25 |
| YTYY | ≤ 0.25 |
| LSMP | ≤ 0.25 |
| FPVA | ≤ 0.25 |
| SGGV | 10.5 |
| INIM | ≤ 0.25 |
| VMED | ≤ 0.25 |
| LHYM | ≤ 0.25 |
| WIPI | ≤ 0.25 |
| IHDD | ≤ 0.25 |
| STKR | ≤ 0.25 |
| IGHL | ≤ 0.25 |
| VESE | ≤ 0.25 |

| Variant | enrichment ratio |
| --- | --- |
| SLQP | ≤ 0.25 |
| KSSP | ≤ 0.25 |
| VYNE | ≤ 0.25 |
| WPMP | ≤ 0.25 |
| QERL | ≤ 0.25 |
| FLEH | ≤ 0.25 |
| HPHS | ≤ 0.25 |
| ELCR | ≤ 0.25 |
| IKWE | ≤ 0.25 |
| KTSM | ≤ 0.25 |
| WLMI | ≤ 0.25 |
| ESCW | ≤ 0.25 |
| VPSK | ≤ 0.25 |
| KHWR | ≤ 0.25 |
| FVHK | ≤ 0.25 |
| WTAR | ≤ 0.25 |
| TNQV | 47.4 |
| CVPS | ≤ 0.25 |
| INHD | ≤ 0.25 |
| ENER | ≤ 0.25 |
| FWMM | ≤ 0.25 |
| FAGY | ≤ 0.25 |
| FKDA | ≤ 0.25 |
| LGDY | ≤ 0.25 |

| Variant | enrichment ratio |
| --- | --- |
| ACMF | 14.4 |
| VRVI | ≤ 0.25 |
| IGKM | ≤ 0.25 |
| YAYF | ≤ 0.25 |
| TMGI | 20.6 |
| LQMF | ≤ 0.25 |
| VEMQ | 1.65 |
| MMRR | ≤ 0.25 |
| DMCH | ≤ 0.25 |
| MNAY | 17 |
| APTV | ≤ 0.25 |
| EHIY | ≤ 0.25 |
| IHEH | ≤ 0.25 |
| GWYY | ≤ 0.25 |
| FTAI | ≤ 0.25 |
| QCPT | ≤ 0.25 |
| TVSA | 10.2 |
| VCTA | ≤ 0.25 |
| KVNK | ≤ 0.25 |
| NDMN | ≤ 0.25 |
| DDGW | ≤ 0.25 |
| LWWK | ≤ 0.25 |
| VQTD | ≤ 0.25 |
| ISFH | 0.373 |

| Variant | enrichment ratio |
| --- | --- |
| VHFQ | ≤ 0.25 |
| PIDH | ≤ 0.25 |
| QMRL | ≤ 0.25 |
| YAYN | ≤ 0.25 |
| LTIV | ≤ 0.25 |
| FCIE | ≤ 0.25 |
| IFSL | 0.302 |
| YGFY | ≤ 0.25 |
| ENAR | ≤ 0.25 |
| KGPD | ≤ 0.25 |
| LDNI | ≤ 0.25 |
| NLCL | 0.966 |
| PKAE | ≤ 0.25 |
| FRRW | ≤ 0.25 |
| IHRD | ≤ 0.25 |
| YWWD | ≤ 0.25 |
| YRSA | ≤ 0.25 |
| YSVY | 0.45 |
| TPIC | ≤ 0.25 |
| DFWW | ≤ 0.25 |
| GGAN | ≤ 0.25 |
| RTKV | ≤ 0.25 |
| KDPD | ≤ 0.25 |
| EDTF | ≤ 0.25 |

| Variant | enrichment ratio |
| --- | --- |
| SPNA | ≤ 0.25 |
| TDTH | 8.19 |
| WRYD | ≤ 0.25 |
| LAIM | ≤ 0.25 |
| AQKD | ≤ 0.25 |
| RWML | ≤ 0.25 |
| ACIP | ≤ 0.25 |
| DKVS | ≤ 0.25 |
| DTLT | ≤ 0.25 |
| WKLM | ≤ 0.25 |
| GNQA | ≤ 0.25 |
| ESYN | ≤ 0.25 |
| SHRA | ≤ 0.25 |
| WDSL | ≤ 0.25 |
| IMIS | ≤ 0.25 |
| IHPP | ≤ 0.25 |
| IPDM | ≤ 0.25 |
| SIIL | ≤ 0.25 |
| ACVK | ≤ 0.25 |
| KIMF | ≤ 0.25 |
| NTFA | ≤ 0.25 |
| QACH | ≤ 0.25 |
| NKRQ | ≤ 0.25 |
| KLRC | ≤ 0.25 |

| Variant | enrichment ratio |
| --- | --- |
| KERW | ≤ 0.25 |
| TRCE | ≤ 0.25 |
| LNHR | ≤ 0.25 |
| WDRD | ≤ 0.25 |
| TGND | ≤ 0.25 |
| TKPW | ≤ 0.25 |
| KISP | ≤ 0.25 |
| RNWS | ≤ 0.25 |
| WTSP | ≤ 0.25 |
| EGPW | ≤ 0.25 |
| APVF | ≤ 0.25 |
| IAAS | ≤ 0.25 |
| KPLE | ≤ 0.25 |
| MMCR | ≤ 0.25 |
| YICQ | 0.338 |
| MDWS | ≤ 0.25 |
| IYLF | ≤ 0.25 |
| SSIE | ≤ 0.25 |
